# In all, about 33,000 sequences were measured (“E-score (-0.5 to 0.5)”: median about -0.011, highest 2% from about 0.28 on). This is one part of the list.
# Molecular target: T1, Gcr1 (UniProt P07261)
# T1 sequence: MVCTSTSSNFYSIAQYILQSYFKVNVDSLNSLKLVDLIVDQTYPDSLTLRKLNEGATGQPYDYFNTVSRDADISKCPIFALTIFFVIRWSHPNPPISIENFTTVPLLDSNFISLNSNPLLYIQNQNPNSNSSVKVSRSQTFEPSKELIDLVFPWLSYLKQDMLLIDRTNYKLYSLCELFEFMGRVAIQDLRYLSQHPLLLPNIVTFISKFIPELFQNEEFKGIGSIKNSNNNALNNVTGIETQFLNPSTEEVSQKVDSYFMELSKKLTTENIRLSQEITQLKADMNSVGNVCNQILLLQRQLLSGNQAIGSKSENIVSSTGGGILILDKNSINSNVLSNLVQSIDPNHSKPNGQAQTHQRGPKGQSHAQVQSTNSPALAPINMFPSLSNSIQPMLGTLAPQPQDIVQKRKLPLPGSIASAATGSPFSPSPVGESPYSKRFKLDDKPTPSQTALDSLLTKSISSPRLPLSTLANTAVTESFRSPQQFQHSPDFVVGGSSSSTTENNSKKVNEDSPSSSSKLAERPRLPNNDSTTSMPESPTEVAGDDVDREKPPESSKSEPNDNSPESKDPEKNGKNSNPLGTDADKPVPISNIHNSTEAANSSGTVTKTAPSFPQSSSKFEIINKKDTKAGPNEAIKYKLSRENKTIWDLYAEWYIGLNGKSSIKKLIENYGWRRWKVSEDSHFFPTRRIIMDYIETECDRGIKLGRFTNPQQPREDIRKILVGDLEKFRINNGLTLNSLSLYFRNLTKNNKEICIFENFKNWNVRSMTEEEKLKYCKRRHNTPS
# Test: PBM E-score (8-mer binding enrichment) (E-score (-0.5 to 0.5)); higher = stronger / more preferred TF binding; most listed sequences are background and not binding sites
# Conditions: protein concentration: 100 nM; construct: GST-full length
# In short: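 PURExpress in vitro transcription/translation supplied GST-tagged yeast transcription factors, either full-length or DNA-binding domain. Applied at about 100-200 nM to universal all-10-mer Agilent arrays double-stranded by primer extension, the bound protein was detected with fluorescent anti-GST. E-scores, modified Wilcoxon-Mann-Whitney statistics, were given by the Universal PBM Analysis Suite to ungapped eight-base words pooled with their reverse complements after masliner normalisation.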
row,Sequence,PBM E-score
1,CAGGACTA,0.157
2,CGATTTCA,-0.0176
3,CAACTATG,-0.0341
4,CCCTTGAC,-0.259
5,CTCTGCAG,-0.212
6,CTTTTTAA,0.0645
7,CGGCGTCA,0.0965
8,AAGATCTT,-0.262
9,CCCATCTC,-0.0861
10,CTCCGTAA,-0.00067
11,CGCACAGA,0.0152
12,CGCGACAG,0.0277
13,AAGCGGAG,-0.13
14,GAGGCCCA,0.025
15,AGCCCCTA,-0.0303
16,ACAGTGAA,-0.0758
17,GACCTGAC,-0.16
18,AGAGGGCG,-0.00957
19,GTAGGAGA,-0.0194
20,CCCAGTAG,0.0415
21,GGCATAAA,0.0465
22,AAAGACAG,-0.0683
23,CCTACTCA,-0.0585
24,CGTTTCCC,-0.0165
25,CTCGAGAG,-0.243

row,Sequence,PBM E-score
1,GGATAACC,-0.0798
2,AAGTTATC,-0.0108
3,TGAACTAA,0.0215
4,AATGTACC,0.191
5,CCATGGTA,-0.096
6,CATCCTGA,0.292
7,ACGGTGAG,-0.174
8,GAGATCGC,-0.18
9,ACATCCCC,0.0757
10,AGAAACGA,-0.066
11,ATGCCCCG,0.019
12,ACACGTTG,-0.0769
13,CCTCTGAG,-0.284
14,TACCGCAA,-0.254
15,CCCCCAAA,0.22
16,ACGTGTCA,-0.138
17,TCTGCGAA,-0.154
18,ACAGTTCT,-0.217
19,CGAGCAAG,-0.139
20,CTACGCGC,0.0481
21,GCGATTGA,-0.137
22,TAAGGCCA,-0.253
23,GCGGTGAC,-0.0909
24,AACAGAAG,0.143
25,GCGGGGCA,-0.0439

row,Sequence,PBM E-score
1,CAGCTTTC,-0.0293
2,CTACTCAA,0.00014
3,AAGGCACC,0.15
4,CCGTGTAA,-0.066
5,CCACAAGC,0.0911
6,CAACGCCG,-0.159
7,ACTCAGTA,-0.114
8,GACTCAGC,-0.0526
9,ACTCCGAG,0.0158
10,CGCCGTAC,-0.0824
11,GACGACCC,-0.0692
12,GCATCTAC,0.263
13,CTGCTCTC,-0.134
14,CATTTATC,-0.0711
15,AACTCCCT,-0.173
16,ACAAAACC,0.0617
17,GACAGATC,-0.235
18,ACTCAATG,-0.0119
19,ACGATTCT,0.00313
20,GTTTTATA,0.0312
21,GAGGGTAA,-0.157
22,ACCTCGGG,0.104
23,CAGGTCGC,0.155
24,CGGGGTAC,0.00884
25,ACTGTAGA,-0.079

row,Sequence,PBM E-score
1,ATGGGTTC,0.0375
2,AGGGTATA,-0.176
3,ATTTCTCA,-0.0426
4,TCAAATAA,0.152
5,GGGTCGAC,-0.247
6,CTCCGGCA,0.253
7,AATGTCGC,-0.023
8,ACACTTCC,-0.00565
9,GACCCAAC,-0.0192
10,ACCGTGTC,-0.0549
11,CCAAGGCA,-0.198
12,AAGCTTTA,-0.0561
13,CTCCTTTC,0.00102
14,CAGCGTAC,-0.31
15,ATATAGGA,0.225
16,CCATCACC,-0.0493
17,GGTCGCAA,0.123
18,ATCACTTG,-0.099
19,GCGGGGGA,-0.117
20,CGTATAAA,0.32
21,ATGTGATC,-0.0304
22,GCCTATCA,0.024
23,CATCGGAG,-0.14
24,CTGATCAA,-0.0595
25,CCAGCAGA,0.051

row,Sequence,PBM E-score
1,CTGCAAGC,-0.275
2,AGCGTGTA,0.112
3,ACAGTGTG,0.0195
4,AATCTAGG,0.116
5,CCTCAATC,0.0343
6,ACATAATA,0.0155
7,GTGGGTGA,-0.083
8,ACTGATGA,-0.0329
9,GAAACCGA,0.151
10,GAATAGAC,-0.15
11,GTTGATCA,-0.128
12,CCAAAAGG,0.143
13,CAATGCTG,-0.136
14,GGAGTACA,-0.0882
15,CTTGGCAA,-0.0483
16,CACGGGGG,-0.0867
17,TGACCTCA,-0.0854
18,CAAAAGCG,-0.0839
19,GGAATTCA,0.192
20,ACAAAACT,-0.00682
21,GGCACGAA,-0.121
22,ACTGGAGC,0.0795
23,CGTCGTAC,-0.145
24,AATTCAGA,0.106
25,CGACAAAC,-0.0253

row,Sequence,PBM E-score
1,CAGATCTG,-0.0872
2,AATTAAGT,0.0833
3,AGGGCTCC,0.143
4,CCTTGTCG,-0.101
5,ATCTCATG,-0.148
6,GGGACATA,-0.132
7,ACCAGAGC,0.123
8,AAGAATAG,-0.0247
9,AATGGAAC,0.154
10,CGAAAGCG,-0.182
11,ACTTGGCG,-0.0129
12,GCGACCCC,-0.169
13,AGTTGGTA,0.16
14,AACTCAAG,-0.0286
15,AATGCCAC,-0.0507
16,CCAGACGA,0.166
17,ATCTGGCA,0.267
18,ACGGCAAG,-0.211
19,ACTTGGAA,0.14
20,AAGGAGCT,-0.092
21,CTACATGC,-0.0548
22,GTCGTATA,0.106
23,ACAATAGT,-0.0855
24,AAGAATAA,0.0669
25,ACATCGGC,-0.112

row,Sequence,PBM E-score
1,GCATTCAC,-0.131
2,GCAAAGAC,0.0449
3,AACAGACG,0.0984
4,AAACTTCG,0.0969
5,ACCCGTTC,-0.115
6,AAGCCACC,0.0043
7,CCTGAGAG,-0.131
8,ATGACAAA,-0.02
9,CGAGCTAG,0.0701
10,CGTTTAAC,-0.0166
11,ACTAAACT,0.0295
12,AATTGGCT,0.0326
13,CGAAGGCG,0.0557
14,GTGTCATA,0.0928
15,AGAGGACA,-0.17
16,ATCTAACC,0.00072
17,CCCAACGG,-0.0188
18,AACCGCAT,0.0356
19,ATCGCGAC,-0.11
20,AGTTCGCA,-0.105
21,CTACTGTA,-0.103
22,TGGTCTAA,-0.272

# — the supplement of paper PMC3334620
